# Measured values taken from PubChem BioAssay (Tox21).
# Inconclusive means that the source gave no clear call. Such entries were picked first, then a sample of the others. For some of these results: Potencies of inconclusive entries are left out as doubtful fits. Active and inactive are the calls of the source. Unless noted, the call rests on the fitted dose curve; in most records, active means well fitted curve in the direction sought with a large enough effect in the repeat runs; inconclusive means weak or mixed curves; inactive means no such curve, though single readings can be large; an effect the other way counts as inactive or inconclusive.
# What was measured:
# [1] = qHTS assay to identify small molecule that activate the aryl hydrocarbon receptor (AhR) signaling pathway - cell viability counter screen (AID 743086); further: nearly all actives have a fitted effect of over 45% in size;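 on viability change, negative = cytotoxic: HepG2 liver cells carrying the AhR DRE luciferase reporter; on the % scale 0 is the no-effect control and ±100 the full control effect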
# How it was run: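 HepG2-AhR-luc (HG2L7.5c1) cells, 4000/well, were preincubated 5 h at 37C, exposed to compound in qHTS format for 24 hr at 37C, then given CellTiter-Fluor for 30 min; viability was read as fluorescence in the reporter wells.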
# [2] = molecular target: Peroxisome proliferator-activated receptor gamma (Homo sapiens) (UniProt P37231); test: qHTS assay to identify small molecule agonists of the peroxisome proliferator-activated receptor gamma (PPARg) signaling pathway (AID 743094; active means well fitted activation curve with a large enough effect in the signal ratio in the repeat runs, not every such curve was filed as active; inconclusive means weak or mixed curves, or effect the other way; inactive means no such curve, though single readings can be large or run the other way; the % refers to the signal ratio; on activation: on the % scale 0 is the no-effect control and ±100 the full control effect); settings: HEK293H PPARg-UAS-bla, beta-lactamase FRET ratio, 17 h; activation: at 57 µM (top of the series) unless noted
# Chain of UniProt P37231 (P37231 whole entry, looked up): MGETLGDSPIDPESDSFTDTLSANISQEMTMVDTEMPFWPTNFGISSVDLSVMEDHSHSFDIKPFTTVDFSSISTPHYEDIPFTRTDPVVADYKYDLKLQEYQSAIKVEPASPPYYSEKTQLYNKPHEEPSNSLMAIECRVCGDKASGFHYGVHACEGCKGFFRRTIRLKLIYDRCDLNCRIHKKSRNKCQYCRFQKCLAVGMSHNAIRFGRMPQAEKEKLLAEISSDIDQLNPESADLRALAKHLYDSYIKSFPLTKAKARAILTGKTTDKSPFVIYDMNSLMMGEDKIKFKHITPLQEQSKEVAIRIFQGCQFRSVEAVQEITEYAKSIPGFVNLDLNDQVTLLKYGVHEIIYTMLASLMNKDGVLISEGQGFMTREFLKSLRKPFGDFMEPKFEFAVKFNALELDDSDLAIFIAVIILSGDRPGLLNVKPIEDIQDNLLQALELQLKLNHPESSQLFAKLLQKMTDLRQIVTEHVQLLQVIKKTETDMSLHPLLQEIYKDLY
# How it was run: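 Agonist activity was taken from a beta-lactamase reporter (FRET substrate, 1 h at room temperature) in HEK293H cells carrying a PPARg UAS-bla construct. Compounds in DMSO were incubated 17 h at 37C after a 5 h cell pre-incubation.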
# [3] = molecular target: Peroxisome proliferator-activated receptor gamma (Homo sapiens) (UniProt P37231); test: qHTS assay to identify small molecule antagonists of the peroxisome proliferator-activated receptor gamma (PPARg) signaling pathway (AID 743191; calls by dose curve; further: nearly all actives have a fitted effect of over 30% in size; on ratio activity, negative = inhibition: on the % scale 0 is the no-effect control and ±100 the full control effect); settings: HEK293H PPARg-UAS-bla, beta-lactamase ratio, antagonist, 17 h; ratio activity, negative = inhibition: at 62.6 µM (top of the series) unless noted
# How it was run: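 GeneBLAzer PPARg UAS-bla HEK293H cells carrying a UAS-driven beta-lactamase reporter were plated at 3000 cells/well, preincubated 5 h at 37C, then given compound for 17 h at 37C; LiveBLAzer B/G FRET substrate was read after 1 h at room temperature.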
# [4] = qHTS assay to identify small molecule antagonists of the peroxisome proliferator-activated receptor gamma (PPARg) signaling pathway - cell viability counter screen (AID 743194); settings: PPARg-bla HEK293H viability, CellTiter-Glo luminescence, 17 h, co-treated with 50 nM rosiglitazone; activity change, negative = cytotoxicity: at 62.6 µM (top of the series) unless noted; further: nearly all actives have a fitted effect of over 55% in size; on activity change, negative = cytotoxicity: on the % scale 0 is the no-effect control and ±100 the full control effect
# How it was run: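 PPARg-UAS-bla HEK293H cells were plated, rested 5 h at 37 C, then treated with compounds plus rosiglitazone (50 nM final) for 17 h at 37 C; viability was then read by CellTiter-Glo luminescence after 30 min at room temperature.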
# [5] = qHTS assay for small molecule activators of the heat shock response signaling pathway (AID 743210; active means well fitted activation curve with a large enough effect in the signal ratio in the repeat runs, with a control signal flat, not every such curve was filed as active; inconclusive means weak or mixed curves; the % refers to the signal ratio); settings: HeLa HSE-bla reporter, beta-lactamase ratio, 5 h; activation: at 62.6 µM (top of the series) unless noted
# How it was run: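 Heat shock element–beta-lactamase HeLa reporter cells; qHTS with compounds for 5 h at 37 C; detection by FRET substrate fluorescence after 2.5 h at RT.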
# [6] = molecular target: Bile acid receptor (Homo sapiens) (UniProt Q96RI1); test: qHTS assay to identify small molecule antagonists of the farnesoid-X-receptor (FXR) signaling pathway (AID 743217; active means well fitted inhibition curve with a large enough effect in the signal ratio in the repeat runs, not every such curve was filed as active; inconclusive means weak or mixed curves, or effect the other way; inactive means no such curve, though single readings can be large or run the other way; the % refers to the signal ratio); settings: HEK293T FXR-UAS-bla, beta-lactamase ratio, CDCA-stimulated, 16 h; activity change, negative = inhibition: at 62.6 µM (top of the series) unless noted
# Chain of UniProt Q96RI1 (Q96RI1 whole entry, looked up): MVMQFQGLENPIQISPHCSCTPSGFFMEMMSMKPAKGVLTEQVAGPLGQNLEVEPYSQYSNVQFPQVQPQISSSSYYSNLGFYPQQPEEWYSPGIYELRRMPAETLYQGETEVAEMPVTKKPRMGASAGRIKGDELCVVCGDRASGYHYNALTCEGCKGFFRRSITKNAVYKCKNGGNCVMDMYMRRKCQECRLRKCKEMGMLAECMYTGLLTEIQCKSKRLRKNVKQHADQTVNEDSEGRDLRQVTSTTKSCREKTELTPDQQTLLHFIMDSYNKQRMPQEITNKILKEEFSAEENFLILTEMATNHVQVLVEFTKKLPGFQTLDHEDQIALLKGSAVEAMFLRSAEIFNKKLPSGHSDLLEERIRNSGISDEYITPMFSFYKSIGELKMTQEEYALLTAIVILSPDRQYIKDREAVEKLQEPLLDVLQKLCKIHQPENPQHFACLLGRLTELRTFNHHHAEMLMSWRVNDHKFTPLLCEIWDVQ
# How it was run: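 Antagonist mode: chenodeoxycholic acid at 50 uM final stimulates a UAS-driven beta-lactamase reporter in HEK 293T FXR-bla cells during 16 h, 37C compound exposure. Read-out is FRET substrate fluorescence after 2 h at room temperature.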
# [7] = molecular target: Vitamin D3 receptor (Homo sapiens) (UniProt P11473); test: qHTS assay to identify small molecule antagonists of the vitamin D receptor (VDR) signaling pathway (AID 743223; active means well fitted inhibition curve with a large enough effect in the signal ratio in the repeat runs, not every such curve was filed as active; inconclusive means weak or mixed curves, or effect the other way; inactive means no such curve, though single readings can be large or run the other way; the % refers to the signal ratio); settings: VDR-UAS-bla HEK293T, beta-lactamase FRET ratio, 16 h; activity change, negative = inhibition: at 61 µM (top of the series) unless noted
# Chain of UniProt P11473 (P11473 whole entry, looked up): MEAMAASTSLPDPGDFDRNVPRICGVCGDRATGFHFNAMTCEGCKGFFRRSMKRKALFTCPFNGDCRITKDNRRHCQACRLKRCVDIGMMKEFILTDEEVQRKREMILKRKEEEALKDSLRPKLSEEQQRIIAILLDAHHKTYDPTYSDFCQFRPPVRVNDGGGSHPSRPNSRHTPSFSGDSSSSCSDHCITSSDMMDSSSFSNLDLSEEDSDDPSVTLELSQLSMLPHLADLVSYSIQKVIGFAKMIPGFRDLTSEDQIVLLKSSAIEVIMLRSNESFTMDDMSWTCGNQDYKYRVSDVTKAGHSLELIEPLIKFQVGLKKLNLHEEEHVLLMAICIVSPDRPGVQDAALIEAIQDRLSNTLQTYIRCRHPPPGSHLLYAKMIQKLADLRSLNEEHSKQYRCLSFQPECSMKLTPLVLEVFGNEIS
# How it was run: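 Beta-lactamase reporter read-out: FRET substrate fluorescence after 2 h at room temperature, following 16 h exposure of VDR-bla cells to test compound plus 3 nM (final) 1alpha,25-dihydroxyvitamin D3 agonist at 37C.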
# [8] = qHTS assay for small molecule agonists of the antioxidant response element (ARE) signaling pathway (AID 743202; active means well fitted activation curve with a large enough effect in the signal ratio in the repeat runs, not every such curve was filed as active; inconclusive means weak or mixed curves, or effect the other way; inactive means no such curve, though single readings can be large or run the other way; the % refers to the signal ratio); settings: HepG2 ARE-bla reporter, beta-lactamase FRET, 16 h; activation: at 73.3 µM (top of the series) unless noted
# How it was run: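 Following a 16 h, 37 C exposure of reporter HepG2 cells (ARE-driven beta-lactamase, 2,000 cells/well) to compounds, FRET substrate was applied for 2 h at room temperature and fluorescence intensity recorded.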
# [9] = qHTS assay to identify small molecule agonists of the peroxisome proliferator-activated receptor delta (PPARd) signaling pathway - cell viability counter screen (AID 743211); settings: PPARd-bla HEK293H viability, CellTiter-Glo luminescence, 17 h; activity change, negative = cytotoxicity: at 62.6 µM (top of the series) unless noted; further: nearly all actives have a fitted effect of over 55% in size
# How it was run: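 Read-out: CellTiter-Glo luminescence, 30 min RT, measured in the same wells as the beta-lactamase reporter. Cells: GeneBLAzer PPAR delta UAS-bla HEK293H, 3000 cells/well, compound exposure 17 h at 37C.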
# [10] = molecular target: Peroxisome proliferator-activated receptor delta (Homo sapiens) (UniProt Q03181); test: qHTS assay to identify small molecule agonists of the peroxisome proliferator-activated receptor delta (PPARd) signaling pathway (AID 743212; calls by dose curve); settings: HEK293H PPARd-UAS-bla, beta-lactamase FRET ratio, 17 h; activation: at 62.6 µM (top of the series) unless noted
# Chain of UniProt Q03181 (Q03181 whole entry, looked up): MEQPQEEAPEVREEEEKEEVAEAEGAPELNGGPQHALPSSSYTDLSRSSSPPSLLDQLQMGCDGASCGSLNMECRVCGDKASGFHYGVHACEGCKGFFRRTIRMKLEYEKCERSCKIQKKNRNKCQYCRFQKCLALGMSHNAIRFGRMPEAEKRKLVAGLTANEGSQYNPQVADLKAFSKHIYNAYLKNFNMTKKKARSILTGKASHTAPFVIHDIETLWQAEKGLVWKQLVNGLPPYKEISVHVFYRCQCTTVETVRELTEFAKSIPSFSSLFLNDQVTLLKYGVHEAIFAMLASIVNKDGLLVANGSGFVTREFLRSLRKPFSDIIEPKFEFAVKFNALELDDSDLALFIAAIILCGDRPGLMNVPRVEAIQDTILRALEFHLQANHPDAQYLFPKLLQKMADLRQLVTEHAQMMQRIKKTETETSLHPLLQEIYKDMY
# How it was run: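 Beta-lactamase reporter read by fluorescence (LiveBLAzer B/G FRET, 2 h, room temperature). Test agents, in DMSO, incubated at 37 C with PPARd-bla HEK293H cells.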
# [11] = qHTS assay to identify small molecule agonists of the farnesoid-X-receptor (FXR) signaling pathway - cell viability counter screen (AID 743218); settings: FXR-bla HEK293T viability, CellTiter-Glo luminescence, 16 h; viability change, negative = cytotoxic: at 62.6 µM (top of the series) unless noted; further: nearly all actives have a fitted effect of over 45% in size
# How it was run: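 Viability counter screen in the same wells: CellTiter-Glo luminescence, 30 min room-temperature incubation, measured after the beta-lactamase read. Cells were GeneBLAzer FXR-UAS-bla HEK 293T, compound-treated 16 h at 37C.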
# [12] = molecular target: Bile acid receptor (Homo sapiens) (UniProt Q96RI1); test: qHTS assay to identify small molecule agonists of the farnesoid-X-receptor (FXR) signaling pathway (AID 743220; active means well fitted activation curve with a large enough effect in the signal ratio in the repeat runs, not every such curve was filed as active; inconclusive means weak or mixed curves, or effect the other way; the % refers to the signal ratio); settings: HEK293T FXR-UAS-bla, beta-lactamase FRET ratio, 16 h; activation: at 62.6 µM (top of the series) unless noted
# How it was run: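 FXR-UAS-bla HEK 293T cells carrying a UAS-driven beta-lactamase reporter were plated for 5 h at 37C/5% CO2, then exposed to DMSO-dissolved Tox21 10K compounds for 16 h at 37C. A LiveBLAzer B/G FRET substrate was loaded for 2 h at room temperature before fluorescence reading.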
# [13] = qHTS assay to identify small molecule antagonists of the farnesoid-X-receptor (FXR) signaling pathway - cell viability counter screen (AID 743221; active means well fitted cell-killing curve with a large enough effect in the repeat runs, not every such curve was filed as active; inconclusive means weak or mixed curves, or effect the other way; inactive means no such curve, though single readings can be large or run the other way; further: nearly all actives have a fitted effect of over 50% in size); settings: FXR-bla HEK293T viability, CellTiter-Glo luminescence, 16 h; activity change, negative = cytotoxicity: at 62.6 µM (top of the series) unless noted
# How it was run: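 HEK 293T FXR-bla cells, 5 h pre-incubation; compound + CDCA 50 uM final, 16 h, 37 C; beta-lactamase FRET read first, then CellTiter-Glo luminescence, 30 min RT.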
# [14] = qHTS assay to identify small molecule agonists of the vitamin D receptor (VDR) signaling pathway - cell viability counter screen (AID 743224); settings: VDR-bla HEK293T viability, CellTiter-Glo luminescence, 16 h; activity change, negative = cytotoxicity: at 62.6 µM (top of the series); further: nearly all actives have a fitted effect of over 50% in size
# How it was run: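 Counter screen run in the same wells as the VDR-bla reporter assay: CellTiter-Glo luminescence, 30 min at room temperature, after 16 h compound treatment at 37C of cells pre-plated for 4 h.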
# [15] = qHTS assay for small molecule activators of the heat shock response signaling pathway - cell viability counter screen (AID 743209); settings: HSE-bla HeLa viability, CellTiter-Glo luminescence, 5 h; activity change, negative = cytotoxicity: at 62.6 µM (top of the series) unless noted; further: nearly all actives have a fitted effect of over 50% in size
# How it was run: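 Cytotoxicity counter screen run in the same wells as the heat-shock bla reporter assay: HeLa HSE-bla cells, 5 h compound exposure at 37 C, viability read by CellTiter-Glo luminescence.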
# [16] = molecular target: Peroxisome proliferator-activated receptor delta (Homo sapiens) (UniProt Q03181); test: qHTS assay to identify small molecule antagonists of the peroxisome proliferator-activated receptor delta (PPARd) signaling pathway (AID 743215; active means well fitted inhibition curve with a large enough effect in the signal ratio in the repeat runs, not every such curve was filed as active; inconclusive means weak or mixed curves, or effect the other way; inactive means no such curve, though single readings can be large or run the other way; the % refers to the signal ratio;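 further: cells stimulated with agonist L165041 at 300 nM final during compound exposure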); settings: HEK293H PPARd-UAS-bla, beta-lactamase FRET ratio, antagonist, 17 h; ratio activity, negative = inhibition: at 62 µM (top of the series) unless noted
# How it was run: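 Agonist L165041 (300 nM final) added with compound to PPARd-bla HEK293H UAS-bla reporter cells; 17 h incubation at 37 C. Read-out: LiveBLAzer FRET substrate, 2 h at room temperature, fluorescence intensity.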
# [17] = molecular target: Vitamin D3 receptor (Homo sapiens) (UniProt P11473); test: qHTS assay to identify small molecule agonists of the vitamin D receptor (VDR) signaling pathway (AID 743222; calls by dose curve); settings: HEK293T VDR-UAS-bla, beta-lactamase FRET ratio, 16 h; activation: at 63.5 µM (top of the series) unless noted
# How it was run: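 Agonist mode, beta-lactamase reporter: fluorescence from LiveBLAzer B/G FRET substrate (2 h, room temperature) read after 16 h compound treatment at 37 C of VDR-bla cells, which were pre-incubated 4 h after seeding.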
# Potency means the concentration at half of the fitted maximal effect; tags describe the fitted curve by direction and shape or compound fluorescence and quenching.
Structure (SMILES),Potency [1],Potency [2],Potency [3],"activity change, negative = cytotoxicity [4]",Potency [5],Potency [6],"activity change, negative = inhibition [7]",Potency [4],Potency [8],Potency [9],Potency [10],Potency [11],Potency [12],Potency [13],Potency [14],Potency [15],Potency [16],Potency [17],Potency [7]
CCCCCCC(C)(C)C(=O)O,inactive,inactive,inactive,inconclusive: -19.5%,inactive,inactive,inconclusive: -1.43%,–,–,–,–,–,–,–,–,–,–,–,–
Cc1cccc(C)c1OCC(=O)N[C@@H](Cc1ccccc1)[C@@H](O)C[C@H](Cc1ccccc1)NC(=O)[C@H](C(C)C)N1CCCNC1=O,active: 23.7 µM,"inconclusive [rising, full curve, poor fit]","inconclusive [rising, partial curve]",–,–,inconclusive,–,"inconclusive [cytotoxic, single point]",active: 29.8 µM,inconclusive [cytotoxic],"inconclusive [rising, partial curve]","inconclusive [cytotoxic, single point]","inconclusive [fluorescent, single point]",active: 23.7 µM,inactive,–,–,–,–
CCCCCCCC[N+](CCCCCCCC)(CCCCCCCC)CCCCCCCC,active: 43.2 µM,"inconclusive [cytotoxic, single point]","inconclusive [cytotoxic, partial curve]",–,inconclusive,"inconclusive [cytotoxic, single point]",–,active: 10.9 µM,"inconclusive [falling, full curve]",active: 6.15 µM,–,"inconclusive [cytotoxic, full curve, poor fit]",inconclusive [single point],–,active: 8.69 µM,active: 4.89 µM,"inconclusive [cytotoxic, partial curve, poor fit]","inconclusive [rising, full curve]","inconclusive [cytotoxic, single point]"
